Test results from the supplement of paper PMC3334620.
Over roughly 33,000 sequences, “E-score (-0.5 to 0.5)” has its median near -0.032; the highest 2% begin near 0.36. Some of the results follow.

molecular target: T1, Sko1 (UniProt Q02100); test: PBM E-score (8-mer binding enrichment) (E-score (-0.5 to 0.5)); higher = stronger / more preferred TF binding; most listed sequences are background and not binding sites; details: protein concentration: 200 nM; construct: GST-full length
T1 sequence: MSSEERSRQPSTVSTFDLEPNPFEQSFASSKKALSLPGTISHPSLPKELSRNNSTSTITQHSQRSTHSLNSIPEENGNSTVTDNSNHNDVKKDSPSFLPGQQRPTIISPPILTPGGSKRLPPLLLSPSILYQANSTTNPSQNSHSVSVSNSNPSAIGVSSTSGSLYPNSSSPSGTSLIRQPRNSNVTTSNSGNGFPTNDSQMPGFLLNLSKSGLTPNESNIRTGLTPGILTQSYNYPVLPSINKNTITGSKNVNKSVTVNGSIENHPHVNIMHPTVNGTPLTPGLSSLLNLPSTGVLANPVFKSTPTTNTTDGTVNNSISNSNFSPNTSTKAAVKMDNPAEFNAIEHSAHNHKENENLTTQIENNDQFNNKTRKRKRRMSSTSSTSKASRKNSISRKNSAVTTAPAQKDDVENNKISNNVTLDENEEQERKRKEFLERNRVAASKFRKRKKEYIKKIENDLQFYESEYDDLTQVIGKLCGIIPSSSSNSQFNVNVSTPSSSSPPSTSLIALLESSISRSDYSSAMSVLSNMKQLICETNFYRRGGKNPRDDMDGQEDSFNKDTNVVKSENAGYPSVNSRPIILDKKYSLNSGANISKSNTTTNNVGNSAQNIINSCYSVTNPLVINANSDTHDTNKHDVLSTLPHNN
Procedure: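 Universal 'all 10-mer' protein binding microarrays (Agilent AMADID 015681) probed with GST-tagged S. cerevisiae TFs (full-length or DBD) made by in vitro transcription/translation (PURExpress), about 100-200 nM. Bound TF was detected with fluorescent anti-GST. Each ungapped 8-mer (which stands for itself and its reverse complement) is scored by the PBM enrichment score (E-score), a modified Wilcoxon-Mann-Whitney statistic from -0.5 to +0.5, computed with the Universal PBM Analysis Suite. Scale: above 0.35 generally sequence-specific binding.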

First: CGAACCAG
Second: TCTACCAA
The “PBM E-score” value of the first is lower: -0.102 for the first, 0.0286 for the second.

Going from AGGGCAGA to ACCCTGGA, the “PBM E-score” value falls from -0.221 to -0.269.

Going from ATCGAGCG to ACAGACCT, the “PBM E-score” value falls from -0.0477 to -0.0535.

Compared with GATCTACA, AAAATTCA is higher in “PBM E-score” value: 0.152 for the first, 0.232 for the second.

Compared with CAAAGGTC, AGTACCCG is higher in “PBM E-score” value: -0.248 for the first, -0.154 for the second.

Compared with ACGGTTGA, AATCGGAT is higher in “PBM E-score” value: -0.0163 for the first, 0.0262 for the second.

First: CCAGTCGA
Second: AGTCTTCG
The “PBM E-score” value of the first is lower: -0.113 for the first, -0.0104 for the second.

Compared with GGGAACGA, CAGTGGGA is lower in “PBM E-score” value: -0.0709 for the first, -0.244 for the second.

First: CATCAAAC
Second: GGGTTGGA
The “PBM E-score” value of the first is higher: 0.0279 for the first, -0.175 for the second.

First: CTTACGGA
Second: CGGAGAAG
The “PBM E-score” value of the first is higher: 0.0115 for the first, -0.339 for the second.

Compared with CCCACAAA, AAATAGTG is higher in “PBM E-score” value: 0.0826 for the first, 0.119 for the second.

Compared with AGTAAGAT, CTCCTGGC is lower in “PBM E-score” value: 0.0634 for the first, -0.186 for the second.

First: AACTCTCA
Second: GACTGGAA
The “PBM E-score” value of the first is higher: 0.0877 for the first, -0.0795 for the second.

Compared with AGGCGCCC, CGACAGTA is higher in “PBM E-score” value: -0.343 for the first, -0.0872 for the second.

Compared with ATATTGCC, AACACACC is higher in “PBM E-score” value: -0.0187 for the first, 0.055 for the second.

Going from AGTACATC to ACAAAGTA, the “PBM E-score” value rises from 0.142 to 0.234.

First: ACGCCCAA
Second: CGGCTGGA
The “PBM E-score” value of the first is higher: -0.0309 for the first, -0.286 for the second.

First: AGTAATAC
Second: AGTGAATA
The “PBM E-score” value of the first is lower: 0.0785 for the first, 0.145 for the second.

Compared with GGCGCAAC, AAAGTAAC is lower in “PBM E-score” value: 0.0247 for the first, 0.0224 for the second.

Compared with ACCTCTAG, AAGGAAGG is lower in “PBM E-score” value: -0.11 for the first, -0.117 for the second.

Going from GCTGTCAA to TCAGAACA, the “PBM E-score” value rises from -0.0369 to 0.143.

First: CACTAGTC
Second: GTGCACTA
The “PBM E-score” value of the first is lower: -0.115 for the first, 0.0334 for the second.

Compared with ACCAGTGC, AAGTGAGT is higher in “PBM E-score” value: -0.295 for the first, -0.114 for the second.

Compared with CGGTAAGA, CCCACGGG is lower in “PBM E-score” value: -0.0828 for the first, -0.323 for the second.

Compared with AACTGTGC, CAAGCTCC is lower in “PBM E-score” value: -0.0382 for the first, -0.175 for the second.

Compared with CATTGCGC, AATTCCCT is lower in “PBM E-score” value: 0.168 for the first, 0.0113 for the second.

First: GGCACCAC
Second: TAAGTATA
The “PBM E-score” value of the first is lower: -0.0296 for the first, 0.181 for the second.

First: GCGAGTAA
Second: ATAGACCA
The “PBM E-score” value of the first is higher: -0.0414 for the first, -0.119 for the second.

First: TCCCCAGA
Second: ATCACCGA
The “PBM E-score” value of the first is lower: -0.0684 for the first, 0.127 for the second.

Going from AATATATG to ACACGGGC, the “PBM E-score” value falls from 0.153 to -0.32.

Compared with AGTACTCC, CGTCAGCA is higher in “PBM E-score” value: -0.3 for the first, 0.283 for the second.

Compared with GATCTAAC, AATTTTCT is higher in “PBM E-score” value: 0.142 for the first, 0.15 for the second.

Going from AACAGTCT to ATTTGAAC, the “PBM E-score” value rises from -0.0828 to -0.033.

Going from ATAAATCC to AACAAAGT, the “PBM E-score” value rises from -0.0598 to -0.0558.

Going from CCCGATTC to ACACTGAC, the “PBM E-score” value rises from -0.0716 to 0.115.

First: CGATACAC
Second: CTTCGTCA
The “PBM E-score” value of the first is lower: -0.00487 for the first, 0.412 for the second.

Going from CCCGCCAC to AAAGGGCG, the “PBM E-score” value falls from 0.0435 to -0.262.

Going from TACGCCAA to CGCCGAGA, the “PBM E-score” value falls from 0.183 to -0.265.

Compared with CATCAGCA, CGTGGCTA is higher in “PBM E-score” value: 0.0784 for the first, 0.114 for the second.

Compared with ACCGTTCG, AATCAATA is higher in “PBM E-score” value: 0.00583 for the first, 0.134 for the second.

First: CATTGGGA
Second: GATCCATC
The “PBM E-score” value of the first is lower: -0.0786 for the first, -0.0717 for the second.

Compared with ACGAAGAC, CGCTCTGA is higher in “PBM E-score” value: 0.00875 for the first, 0.0109 for the second.

First: CCCCGGTC
Second: AACCAATA
The “PBM E-score” value of the first is lower: -0.419 for the first, 0.195 for the second.
